Source: article PMC6919601, “Identification of Plasmodium dipeptidyl aminopeptidase allosteric inhibitors by high throughput screening” (PLoS ONE, 2019)
The whole screen tested about 110,000 compounds, of which about 230 (0.21%) showed an effect of 50% or more. This is one part of the list.

biological target: DPAP1 (Plasmodium falciparum, UniProt Q8IIJ9); test: primary screen, percent inhibition; read by cleavage of a fluorogenic dipeptide substrate; higher = more effect of the substance; design: species or system P. falciparum D10 trophozoite lysates; single well
Sequence (Q8IIJ9 whole entry, looked up): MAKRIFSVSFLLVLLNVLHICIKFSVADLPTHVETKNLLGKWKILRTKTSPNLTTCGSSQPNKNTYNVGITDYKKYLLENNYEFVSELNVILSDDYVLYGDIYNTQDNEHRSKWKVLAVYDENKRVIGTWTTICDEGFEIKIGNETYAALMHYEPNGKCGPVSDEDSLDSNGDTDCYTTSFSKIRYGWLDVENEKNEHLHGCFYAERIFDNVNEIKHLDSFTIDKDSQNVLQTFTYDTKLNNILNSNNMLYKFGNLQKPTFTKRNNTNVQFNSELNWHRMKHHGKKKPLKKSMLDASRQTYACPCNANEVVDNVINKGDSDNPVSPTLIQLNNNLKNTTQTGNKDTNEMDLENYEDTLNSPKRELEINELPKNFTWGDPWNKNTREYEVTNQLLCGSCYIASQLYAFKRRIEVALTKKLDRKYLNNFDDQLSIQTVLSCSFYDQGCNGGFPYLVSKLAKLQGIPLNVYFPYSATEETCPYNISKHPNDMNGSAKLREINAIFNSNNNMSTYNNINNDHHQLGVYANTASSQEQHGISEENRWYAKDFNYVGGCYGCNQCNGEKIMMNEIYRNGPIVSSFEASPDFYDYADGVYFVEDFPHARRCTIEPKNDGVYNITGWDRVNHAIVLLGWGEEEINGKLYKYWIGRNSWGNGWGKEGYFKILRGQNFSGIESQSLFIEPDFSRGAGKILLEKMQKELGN
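Further: 30 min substrate incubation versus DMSO and 10 µM JCP410 controls.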

Structure (SMILES) | % Inhibition @ 10 uM
COC(=O)c1ccc(OCC(=O)c2c(O)cc(O)cc2O)cc1 | -9.55%
O=C(CN1C(=O)CSc2ncccc21)NC1CCN(Cc2ccccc2)CC1 | 1.03%
COc1nccc(Nc2ccccc2)c1C#N | 1.9%
Fc1ccccc1OCCCN1CCCCC1 | -1.05%
CCOc1ccc(CCNC(=O)C2CCCN(c3ncnc4c3nc3n4CCCCC3)C2)cc1 (stereo not drawn) | 7.2%
CP(=O)(O)C(c1ccccc1)C(F)(F)C(F)(F)C(F)(F)F (stereo not drawn) | 4.1%
O=C1/C(=C/c2ccc(O)cc2)Sc2ccccc21 | -1.03%
CCc1nnc(NC(=O)C2CCCN(c3ncnc4onc(C)c34)C2)s1 (stereo not drawn) | 3.7%
COc1ccc(CCNC(=O)CSc2nnc(-c3ccco3)c(-c3ccco3)n2)cc1OC | -0.386%
COC(=O)c1sccc1NC(=S)N1CCN(Cc2ccccc2)CC1 | -3.48%
CC1=C(C(=O)Nc2ccccc2C)C(c2cccs2)n2c(s/c(=C/c3cnn(C)c3C)c2=O)=N1 (stereo not drawn) | -1.79%
CC1(C)C(C(=O)Nc2ccc(Br)cc2)C1(C)C | -0.13%
O=C(/C=C/c1ccc(Br)cc1)N1CCN(c2ccc([N+](=O)[O-])cc2)CC1 | 5.31%
Cc1c2cnn(CC(=O)N3CCN(C4CCCCC4)CC3)c(=O)c2c(C)n1Cc1ccccc1 | 2.84%
CC1CC(C)(C)NC(=S)N1CC(=O)NC(c1ccccc1)c1ccccc1 (stereo not drawn) | -8.38%
CCC(C)N(CCNS(=O)(=O)c1cc(-c2cc(C)no2)ccc1C)Cc1cccs1 (stereo not drawn) | 4.06%
COc1cccc(/C=C2\N=C(c3cccc(OC)c3)OC2=O)c1 | -8.16%
Cc1cc(C(=O)NCc2ccc(Cl)cc2)[nH]n1 | 1.06%
Cc1ccc2onc(CC(=O)Nc3cccc(C)n3)c2c1 | -1.08%
N#Cc1c(NC(=O)CCc2ccccc2)sc2c1CCCC2 | 15.5%
CCOc1ccc(-c2nc3n(c(=O)c2C#N)CCS3)cc1 | -2.68%

Structure (SMILES) | % Inhibition @ 10 uM
CCOCCCNC(=O)CCNS(=O)(=O)c1ccc(C)cc1 | -3.94%
CC(Sc1ccccc1)C(=O)NCc1ccco1 (stereo not drawn) | -1.81%
CC(C)CC(=O)NC1(C(F)(F)F)N=C2SCCN2C1=O (stereo not drawn) | -3.33%
COCCNc1nc(S)nc2cc(OC)c(OC)cc12 | 0.708%
O=C1c2[nH]nc(-c3ccccc3O)c2C(c2ccc(O)cc2)N1Cc1ccc(F)cc1 (stereo not drawn) | 1.67%
COc1ccccc1S(=O)(=O)Cc1ccc(C(=O)N2CCC(Cc3ccccc3)CC2)o1 | -4.96%
COc1ccc(C2C3=C(CC(C)(C)CC3=O)N(CC(=O)O)C3=C2C(=O)CC(C)(C)C3)cc1 | -4.12%
Cc1ccc(-c2ccc(C3C(C#N)=C(N)OC4=C3C(=O)CC(C)(C)C4)o2)cc1 (stereo not drawn) | -0.864%
Cc1ccc(C2=NS(=O)(=O)N(C)C(C(=O)NCCCN3CCOCC3)=C2)cc1 | 2.32%
O=C(O)CCCCCNC(=O)/C(=C/c1ccc2c(c1)OCO2)NC(=O)c1ccco1 | 7.1%
CN1CCN(C(=O)Cn2ncc3c4ccccc4n(C)c3c2=O)CC1 | 1.41%
CCN(CC)C(=O)C1CC(c2cc(OC)c(OC)c(OC)c2)=NO1 (stereo not drawn) | -5.79%
CCC(=O)Nc1ccc(S(=O)(=O)N2CCC(C)CC2)cc1 | -0.413%
C=CCn1c2nc3ccccc3nc2c2cccc(C)c21 | -5%
Cc1cc(NS(=O)(=O)c2ccc(NC(=O)C3c4ccccc4Oc4ccccc43)cc2)nc(C)n1 | -0.996%
Cc1ccc(-n2nc3c(N4CCC(C(=O)N5CCOCC5)CC4)nnc(C)c3c2C)cc1 | 5.2%
O=C(CN1C(=O)S/C(=C\c2ccc(F)cc2)C1=O)Nc1ncc(Cc2ccccc2Cl)s1 | 5.7%
CC1=C(C(=O)Nc2ccccn2)C(c2cccnc2)n2nnnc2N1 (stereo not drawn) | 1.84%
Clc1ccc(C2NCCc3c2[nH]c2ccccc32)cc1Cl (stereo not drawn) | 1.66%
Cc1ccc(/C=C/C(=O)O)cc1S(=O)(=O)NCCCO | 21.7%
Cc1cc(=O)n2nc(N3CCC(C(=O)N4CCC5(CC4)OCCO5)CC3)sc2n1 | 3.3%

Structure (SMILES) | % Inhibition @ 10 uM
CC(C)CC(NC(=O)c1ccc(NC(=O)N(C)C)cc1)C(=O)NCC#N (stereo not drawn) | -9.15%
Cc1nn(-c2ccccc2)c(S)c1/C=N/c1ccc([N+](=O)[O-])cc1 | 23.3%
CC1CCC(C(C)C)C(OCC(O)CN2C(C)CCCC2C)C1 (stereo not drawn) | 2.16%
CC1=C(C(=O)Nc2cccc(C)c2C)C(c2ccc(Cl)cc2Cl)NC(=O)N1 (stereo not drawn) | -14.2%
Cc1cc(C)cc(NC(=O)COc2ccc(Cl)cc2Cl)c1 | -3.44%
CC(C)C[C@H](NC(=O)c1ccc(N2CCOCC2)cc1)C(=O)NC1(C#N)CCOCC1 | 13.6%
Cc1ccc(N2C(=O)C3ON=C(C(=O)c4ccc(Cl)cc4)C3C2=O)cc1 (stereo not drawn) | -0.303%
CC1=CC(C)C(C(=O)O)C(C(=O)Nc2ccccc2)C1 (stereo not drawn) | -4.26%
Cc1ccc(-c2onc(C)c2C)cc1S(=O)(=O)NC1CCCCCC1 | -8.07%
Cc1ccc(NC(=O)/C=C/C(=O)O)c(Br)c1 | 1.41%
CSc1ccc(C2C(C(=O)OCc3ccccc3)=C(C)N=C3SC(C)C(=O)N32)cc1 (stereo not drawn) | 5.44%
COCCNC(=O)c1cc2oc3ccccc3c2n1C | -2%
CS(=O)(=O)N1CCC(C(=O)Nc2ccc(Br)cc2)CC1 | 0.812%
CC(C)c1ccccc1OCC(=O)N1CCN(C(=O)COc2ccccc2C(C)C)CC1 | 3.01%
c1ccc(CN2CCC(NCCN3CCCCC3)CC2)cc1 | -3.6%
CC(=O)Nc1ccc(N2C(=O)CC(NCCc3ccccc3)C2=O)cc1 (stereo not drawn) | 0.24%
O=C(Nc1ccc2c(c1)OCO2)c1ccc(F)cc1 | -5.84%
Oc1cccc2ccc(N3CCCCC3)nc12 | 4.88%
Nc1c(C(=O)Nc2ccc(F)cc2)sc2nc3c(cc12)CCCCC3 | 41.5%
CCN(CC)C(=O)c1ccccc1NC(=O)c1ccco1 | -1.11%
Cc1ccc2oc(=O)c3cnn(CC(=O)n4c(C)cc5ccccc54)c3c2c1 | -5.25%
